The campaign covered roughly 150,000 compounds. About 540 (0.36%) showed an effect of 50% or more. This is one part of the list.

This assay deals with Plasmodium falciparum. Put plainly: Primary screen in NF54 nanoGlo assay, in single point, at 2uM, 72h; a lower Z score goes with more inhibition. In kind it is functional, Erythrocyte. The note with it: timepoint 72 hour.
On to `COc1ccc(-c2ccno2)cc1S(=O)(=O)NCc1noc(C2CC2)n1`, for which the “% Inhibition” value is -16% and the Z score is reported as 2.04.
Consider `CC(C)OCc1c(C(=O)N2CCCCCC2)oc2ccccc12`, for which the “% Inhibition” value is listed as -6% and the Z score was 1.01.
Take `CC(C)OCCC(=O)N1CCN(c2nncc3ccccc23)CC1`: the “% Inhibition” value is recorded as 4% and the Z score is -0.58.
For the compound `CCCCc1ccc(NC(=O)N(CCN(C)C)CCN(C)C)cc1`, the “% Inhibition” value is 17% and the Z score is reported as -2.41.
On to `Cc1noc(C)c1S(=O)(=O)NCc1cc(-c2ccncc2)nn1C`, for which the “% Inhibition” value was -15% and the Z score worked out at 1.74.
As for `Cc1ccc(-c2ncn(C3CCCCC3)c2-c2ccc(C(=O)Nc3ccc(F)cc3)o2)cc1`, the “% Inhibition” value is reported as -2% and the Z score worked out at 0.32.
Consider `CCCC(=O)N1CCC(N2C(=O)N(Cc3cccnc3)C[C@]23CCOC3)CC1`, for which the “% Inhibition” value is listed as -10% and the Z score turned out to be 1.15.
`CO[C@H]1COCC[C@@H]1NS(=O)(=O)c1cccnc1`: the “% Inhibition” value was -10% and the Z score was 1.9.
Take `CCOCC1CN(C(=O)NCC2CS(=O)(=O)c3ccccc32)CCO1` (stereo not drawn): the “% Inhibition” value was -16% and the Z score is on record as 2.07.
Take `CC1(C)C(=O)N(c2ccccc2)/C(=N/c2ccc(Cl)cc2)[C@H]1N1CCCC1`: the “% Inhibition” value was 4% and the Z score is given as -0.46.
`CCOCCOc1ccc(Br)cc1NC(N)=O`: the “% Inhibition” value is recorded as -12% and the Z score is 1.66.
`CCCc1cnc(N(C)CCC(C)(C)O)nc1`: the “% Inhibition” value was -4% and the Z score was found to be 0.81.
`Cc1cccc(N2CCN(C(=O)[C@@H]3CNC(=O)C3)CC2)c1C`: the “% Inhibition” value is given as -9% and the Z score amounted to 1.58.
As for `Cn1cc(S(=O)(=O)NC[C@](O)(c2ccoc2)c2ccco2)cn1`, the “% Inhibition” value was -15% and the Z score is reported as 2.51.
Turning to `CCN(C(=O)c1cc(C)n(-c2ccc(F)cc2F)n1)c1cccnc1`, the “% Inhibition” value is given as -10% and the Z score was determined as 1.24.
Turning to `Cc1ccn(C)c(=O)c1NS(=O)(=O)c1c(C)noc1C`, the “% Inhibition” value was -6% and the Z score stood at 1.
On the same counts, the results for `CCONC(=O)[C@H](CC)c1ccccc1` are 12% and -1.66.
As to `Cc1ccc(S(=O)(=O)N2CCN(C(=O)CCc3c(C)n[nH]c3C)CC2)cc1`, the “% Inhibition” value was -13% and the Z score was 1.73.
On to `Cc1cc(NC(=O)c2cc(C)on2)no1`, for which the “% Inhibition” value is reported as -6% and the Z score came out at 0.92.
As for `Cc1ccc(NC(=O)c2nn(-c3ccc(C)cc3)c3ccccc3c2=O)cc1`, the “% Inhibition” value is -15% and the Z score amounted to 2.23.
Take `COc1ccccc1C1CC1C(=O)Nc1c(C)c(C2CC2)nn1-c1ccccc1` (stereo not drawn): the “% Inhibition” value is -12% and the Z score was found to be 1.41.
In the case of `O=C(Nc1ccc(OC(F)(F)Cl)cc1)NS(=O)(=O)Oc1ccccc1F`, the “% Inhibition” value was -9% and the Z score was 1.16.
In the case of `COc1cc(C(=O)N2CCO[C@H](C)[C@H]2C(N)=O)on1`, the “% Inhibition” value is -8% and the Z score amounted to 1.3.
For the compound `CCCc1c2c(nn1-c1ccccc1F)C[C@H](c1ccccc1)CC2=O`, the “% Inhibition” value amounted to 4% and the Z score is -0.65.
Turning to `Cc1nc(N)nc(-c2cccc(C(=O)N3C[C@H]4CC=CC[C@H]4C3)c2)c1Cl`, the “% Inhibition” value is on record as -6% and the Z score amounted to 0.73.
For `Cc1nc(C(=O)Nc2ccncc2)c(-c2ccccc2Cl)s1`, the “% Inhibition” value was -14% and the Z score is given as 1.76.
In the case of `CO[C@H]1COCC[C@@H]1NC(=O)c1cccc(CN2CCCCCC2)c1`, the “% Inhibition” value stood at 0% and the Z score is listed as -0.01.
Regarding `CCN(CC)S(=O)(=O)c1ccc2c(c1)nnn2CCC(=O)N1CCN(c2ccccn2)CC1`, the “% Inhibition” value stood at 10% and the Z score is given as -0.97.
As to `Cc1ccc(S(=O)(=O)c2c(NS(=O)(=O)c3ccc(F)cc3)n(CCc3ccccc3)c3nc4ccccc4nc23)cc1`, the “% Inhibition” value is given as 98% and the Z score is reported as -8.73.
Regarding `CC(CC(O)c1ccco1)NC(=O)c1cncc(F)c1` (stereo not drawn), the “% Inhibition” value is -9% and the Z score came out at 1.11.
Consider `Cc1cc(C(=O)NC2CCN(C)CC2)ccc1N(C)S(=O)(=O)c1ccc(Cl)cc1`, for which the “% Inhibition” value was determined as 1% and the Z score is listed as -0.1.
With `COc1c[nH]c(C(=O)N2CCc3[nH]c(-c4ccccc4)nc3C2)cc1=O`, the “% Inhibition” value is given as -10% and the Z score was 1.52.
With `O=C(NCc1cnn(CCF)c1)[C@H]1CCCN1C(=O)c1ccccc1`, the “% Inhibition” value is given as -3% and the Z score came to 0.39.
As for `O=S(=O)(CCN1CCCCC1)Oc1ccc(Cl)cc1Cl`, the “% Inhibition” value turned out to be 0% and the Z score is reported as -0.03.
For `O=C(c1sc2cc(C(F)(F)F)ccc2c1Cl)N1CCNCCNCC1`, the “% Inhibition” value is on record as 0% and the Z score is -0.01.
For `O=C(NC[C@]1(O)CCOC1)C1(O)CCCC1`, the “% Inhibition” value is on record as -4% and the Z score was 0.46.
With `CC1(C)NC(=O)N(Cc2ccnc(OCC3CC3)c2)C1=O`, the “% Inhibition” value is listed as 3% and the Z score is reported as -0.53.
As to `CCCNc1ccccc1-c1nc(OC)c2cnn(-c3ccccc3)c2n1`, the “% Inhibition” value amounted to 31% and the Z score is on record as -3.5.
In the case of `COCc1cc(-c2ccc(C)cc2-n2nc(C)cc2C)ncn1`, the “% Inhibition” value is given as -9% and the Z score is reported as 1.05.
Take `COc1ccc(S(=O)(=O)N[C@H]2CCS(=O)(=O)C2)c2c1CCCC2`: the “% Inhibition” value is -4% and the Z score came to 0.83.
Consider `Cc1ccccc1Nc1c(-c2ccc(N3CCOCC3)cc2)nc2c(C)cccn12`, for which the “% Inhibition” value is on record as -14% and the Z score was 1.39.
As to `Cc1cnn(CCCN2CCO[C@H](c3ccc(Cl)cc3)C2)c1`, the “% Inhibition” value turned out to be 2% and the Z score is recorded as -0.41.
For the compound `Cc1nc(C(=O)OC[C@H]2CCCCO2)cs1`, the “% Inhibition” value was -12% and the Z score is 2.28.
In the case of `Cc1csc(CN(C)C(=O)CCCn2cnnn2)n1`, the “% Inhibition” value was -6% and the Z score turned out to be 0.62.
For `Cn1cccc1-c1noc(CNC(=O)Cc2cccc(Cl)c2)n1`, the “% Inhibition” value is -18% and the Z score is reported as 2.27.
As to `O=C(c1c(F)cccc1Cl)N1C[C@H](COc2ccncc2)C2(CCOCC2)C1`, the “% Inhibition” value is given as -11% and the Z score amounted to 1.49.
As for `CC1(OCC#CCN2CCOCC2)COC(C)(OCC#CCN2CCOCC2)OC1` (stereo not drawn), the “% Inhibition” value is given as -8% and the Z score was determined as 1.01.
In the same order, the values of `Cc1ccsc1[C@H]1CCN(Cc2ccccc2C(=O)O)C[C@@H]1O` are -5% and 0.59.
On to `O=C(c1ccncn1)N1CCC[C@@H]1CCc1noc(-c2ccccn2)n1`, for which the “% Inhibition” value is given as -18% and the Z score was 2.94.
In the same order, the values of `CC(C)(C(=O)Nc1nc(C2CC2)c(Cc2ccc(F)cc2)s1)n1cc(N)cn1` are 1% and -0.11.
On the same counts, the results for `CCc1nsc(NC[C@H]2CCCN(CC(F)(F)F)C2)n1` are -13% and 1.5.
On to `COCC1(O)CCN(C(=O)[C@H](C)NC(=O)CC2CCCCC2)CC1`, for which the “% Inhibition” value is -14% and the Z score is given as 1.78.
As for `COc1cccc(CN2C(=O)C(=O)N(Cc3ccno3)C2=O)c1`, the “% Inhibition” value is -15% and the Z score was 1.37.
As to `COCC(=O)NC[C@@H]1C[C@H](F)CN1S(=O)(=O)N(C)Cc1ccccc1`, the “% Inhibition” value is given as -16% and the Z score stood at 2.09.

One may read the % Inhibition as the change of the read-out against control, counted positive when it falls.
